In the RNAGym collection of RNA variant scans (doi:10.1093/nar/gkz1192):
Read counts are not given, so values of variants with three or more changes are uncertain.

B1: CPEB3 Ribozyme (parent)
chain: UAACAGGGGGCCACAGCAGAAGCGUUCACGUCGCAGCCCCUGUCAGAUUCUGGUGAAUCUGCGAAUUCUGCUGUAUAUCUC

Variants of: B1
Test: self-cleavage, relative activity (ratio to wild type); higher = more cleavage; in vitro, sequencing
Outline: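 CPEB3 self-cleaving ribozyme mutant libraries were made by rounds of error-prone PCR, barcoded, and transcribed in vitro with T7 RNA polymerase for 5 hours at 37°C. Cleavage occurred during transcription and a 15 min DNase I step before EDTA stop. RNAs were reverse transcribed with template switching and Illumina-sequenced, with DNA sequencing mapping barcodes to variants. Relative activity is the variant's cleaved/total read fraction divided by wild type's (minimum 5 reads), averaged across three batches.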
UAACAGGAGGCCACAGCAGAAGCGUUCACGUCGCUGCCCCUGUCAGAUUCUGGCGAAUCUGCGAACUCUGCUGUAUAUCUC [G8A A35U U54C U66C] showed a self-cleavage of 0.12. UAACAGGAGGCCACAGCAGAAGCGUUCGCGUCGCAGCCCCUGUCAGAUUCUGGUGAAUCUGCGAAUUCUGCUGUAUAACCC [G8A A28G U78A U80C] showed a self-cleavage of 0.05. Work on UAACAGGAGGCCACAGCAGAGGCGUUCACGUCGCAGCCCCUGUCAGAUUCUGGUGAAUCUGCGAAUUCUGCAGUAUAUCUC [G8A A21G U72A] yielded a self-cleavage of 0.14. Variant UAACAGGAGGCCACAGCAGAAGCGUUCUCGUCGCGGCCCCUGUCAGAUUCUGGUGAAUCUGCUAAUUCUGCAGUAUAUCUC [G8A A28U A35G G63U U72A] has a self-cleavage of 0.09. For UAACAGGAGGCCACAGCAGAAGCGUUCGCGUCGCAGCCCCUGUCAGAUUCUGGUGAGUCUGCGAAUUCUGCUGUAUAUCUC [G8A A28G A57G], the self-cleavage was 0.1. With UAACAGGAGGCCACAGCAGAGGCGUUCACGUCGCAGCCCCUGUCAGAUUCCGGUGAAUCUGCGAAUCCUGCUGUAUAACUC [G8A A21G U51C U67C U78A] the self-cleavage was 0. For UAACAGGAGGCCACAGCAGAAGCGUUCACGUCGCUGCCCCUGUCAGAUCCUGGUGAACCUGCGAAUUCUGCCGUAUAUCUC [G8A A35U U49C U58C U72C], the self-cleavage was 0.07. Variant UAACAGGAGGCCACAGCAGAAGCGUUCGCGUCGCAGCCCCUGUCAGAUUCUGGUGAAUCUGCGAAUUCUGCAGUACAUCCC [G8A A28G U72A U76C U80C] has a self-cleavage of 0.05. In the case of UAACAGGAGGCCACAGCAGAAGCGUUCGCGUCGCAGCCCCUGUCAGAUUCUGGUGAAUCAGCGAAUUCUGCUGUAUAUCUC [G8A A28G U60A], the self-cleavage is reported as 0.07. UAACAGGAGGCCACAGCAGAAGCGUUCGCGUCUCAGCCCCUGUCAGAUUCUGGUGAAUCAGCGAAUUCUGCUGUAUAACUC [G8A A28G G33U U60A U78A] gave a self-cleavage of 0.05. With UAACAGGAGGCCACAGCAGAGGCGUUCACGUCGCAGCCCCUGUCAGAUUCUGGUGAAUCUGCGAAUUCCGCUGUAUACCUC [G8A A21G U69C U78C] the self-cleavage was 0.06. Variant UAACAGGAGGCCACAGCAGAAGCGUUCACGUCGCGGCCCCUAUCAGAUUCUGGUGAAUCUGCGAAUUCGGCCGUAUAUCUC [G8A A35G G42A U69G U72C] has a self-cleavage of 0.07. With UAACAGGAGGCCACAGCAGAAGCGUUCGCGUCGCAGCCCCUGUCAGACUCUGGUGUAUCUGCGAAUUCUGCUGUAUACCUC [G8A A28G U48C A56U U78C] the self-cleavage was 0.06. In the case of UAACAGGAGGCCACAGCAGAGGCGUUCACGUCGCAGCCCCUGUCAGAUUCAGGUGAAUCUGCGAAUUCUGCUGUAUAUCUC [G8A A21G U51A], the self-cleavage is reported as 0.34. UAACAGGAGGCCACAGCAGAAGCGUUCGCGUCUCAGCCCCUGUCAGAUUCUGGUGAAUCUGCGAAUUCUGCUGUAUAUCAC [G8A A28G G33U U80A] showed a self-cleavage of 0.22. For UAACAGGAGGCCACAGCAGAAGCGUUCACGUCGCUGCCCCUGUCGGAUUCAGGUGAACCUGCGAAUUCUGGUGUAUAUCUC [G8A A35U A45G U51A U58C C71G], the self-cleavage was 0.08. UAACAGGAGGCCACAGCAGAAGCGUUCACGUCGCGGCCCCUGUCAGACUCUGGCGAAUCUGCGAAUUCUGCUGUUUAUCUC [G8A A35G U48C U54C A75U] gave a self-cleavage of 0.09. In the case of UAACAGGAGGCCACAGCAGAGGCGUUCACGUCGCAGCCCCUGUCAGAUCCUGGUGAAUCUGCGAAUUCUGCCGCAUAUCUC [G8A A21G U49C U72C U74C], the self-cleavage is reported as 0.05. Variant UAACAGGAGGCCACAGCAGAAGCGUUCUCAUCGCAGCCCCUGUCAGAUUCUGGAGGAUCUGCGAAUUCUGCUGUAUAUCUC [G8A A28U G30A U54A A56G] has a self-cleavage of 0.07. In the case of UAACAGGAGGCCACAGCAGAAGCGUUCACGUCGCUGCCCCUGUCAGAUUCUGGCGAAUCUGCGAAUCCUGCUGUAUAUCUC [G8A A35U U54C U67C], the self-cleavage is reported as 0.06. Work on UAACAGGAGGCCACAGCAGAAGCGUUCGCGUCGCAGCCCCUGCCGGAUUCUGGUGAAUCUGCGAAUUCUGCUGUAUAUCGC [G8A A28G U43C A45G U80G] yielded a self-cleavage of 0.05. UAACAGGAGGCCACAGCAGAAGCGUUCCCGUCGCAGCCCCUGUCUGAUUCCGGUGAAUCUGCGAAUUCUGCCGUAUAUCUC [G8A A28C A45U U51C U72C] showed a self-cleavage of 0.07. UAACAGGAGGCCACAGCAGAUGCGUUCACGUCGCAGCCCCUGUCAGAUUCUGGCGAAUCUGCGAAUCCUGCUACAUAACUC [G8A A21U U54C U67C G73A U74C U78A] showed a self-cleavage of 0.04. UAACAGGAGGCCACAGCAGAAGCGUUCUCGUCGCAGCCCCUGUCAGAUUCUGGUGUAUCUGCGAAUUCUGCCGUGUAUCUC [G8A A28U A56U U72C A75G] showed a self-cleavage of 0.05. In the case of UAACAGGAGGCCACAGCAGAUGCGUUCACGACGCAGCCCCUGUCAGAUUCUGGUGAAUCUGCGAAUUCUGCUGUAUAUCUC [G8A A21U U31A], the self-cleavage is reported as 0.05. UAACAGGAGGCCACAGCAGAGGCGUUCACGUCGCAGCCCCUGUCAGAUUCUGGUGAAUCUGCGAAUUCUGCUGUAUACCUC [G8A A21G U78C] gave a self-cleavage of 0.06. Variant UAACAGGAGGCCACAGCAGAAGCGUUCACGUCGCUGCCCCAGUCAGAUUCUGGAGAAUCUGCGAAUUCUGCUGUAUAUCUC [G8A A35U U41A U54A] has a self-cleavage of 0.09. For UAACAGGAGGCCACAGCAGAAGCGUUCGCGUCGCAGCCCCUGUCAGACUCUGGUGACUCUGCGAAUUCUGCUGUAUAUCUC [G8A A28G U48C A57C], the self-cleavage was 0.04. Variant UAACAGGAGGCCACAGCAGAAGCGUUCGCGUCGCAGCCCCUGUCAGGUUCUGGUGAAUCUGCGAAUUCUGCUGUAUAUCUC [G8A A28G A47G] has a self-cleavage of 0.16. Variant UAACAGGAGGCCACAGCAGAAGCGUUCUCGUCGUAGCCCCUGUCAGAUCCUGGUGAAUCAGCAAAUUCUGCUGUAUAUCUC [G8A A28U C34U U49C U60A G63A] has a self-cleavage of 0.09. Variant UAACAGGAGGCCACAGCAGAAGCGUUCUCGUCGCAGCCCCAGUCAGAUUCUGGUGAAUCUGCGAAUUCUGCUGUAUAUCUC [G8A A28U U41A] has a self-cleavage of 0.06. For UAACAGGAGGCCACAGCAGAAGCGUUCUCGUAGCAGCCCCUGUCAGAUUCUGGAGAAUCUGCGAAUUCUGCCGUAUAUCUC [G8A A28U C32A U54A U72C], the self-cleavage was 0.07. For UAACAGGAGGCCACAGCAGAAGCGUUCACGUCGCUGCCCCUGCCCGAUUCUGGUGAAUCUGCGAAUUCUGCUGUAUAUCUC [G8A A35U U43C A45C], the self-cleavage was 0.14. UAACAGGAGGCCACAGCAGAAGCGUUCGCGUCGCAGCCCCUGUCAGGUUCUGGUGAAUCUGCGAAUUCCGCUGUAUAUCUC [G8A A28G A47G U69C] showed a self-cleavage of 0.11.
